In PubChem BioAssay AID1631 (National Center for Advancing Translational Sciences (NCATS), 2009):
Among all 260,000 compounds or so, about 890 (0.34%) were called active. The inconclusive results got no clear call from the source; some entries with a clear call stand among them for comparison. The call rests on the fitted dose curve; in most records, active means well fitted activation curve with a large enough effect; inconclusive means small, poorly fitted or top-dose-only effect; inactive means no such curve, though single readings can be large or run the other way. No potency is given beside an inconclusive call; the fits are too rough.
Further: nearly all actives have a fitted effect of over 55% in size.
On the % scale 0 is the no-effect control and ±100 the full control effect; potency means the concentration at half of the fitted maximal effect; tags describe the fitted curve by direction and shape.

Each molecule was assayed against Pyruvate kinase PKM (Homo sapiens) (UniProt P14618) (assay: qHTS Assay for Activators of Human Muscle isoform 2 Pyruvate Kinase). Details: purified PKM2, Kinase-Glo ATP luminescence; Potency: activation; activation: at 57.5 µM (top of the series), 0% is enzyme alone, no compound.
Sequence of UniProt P14618 (P14618 whole entry, looked up, canonical isoform): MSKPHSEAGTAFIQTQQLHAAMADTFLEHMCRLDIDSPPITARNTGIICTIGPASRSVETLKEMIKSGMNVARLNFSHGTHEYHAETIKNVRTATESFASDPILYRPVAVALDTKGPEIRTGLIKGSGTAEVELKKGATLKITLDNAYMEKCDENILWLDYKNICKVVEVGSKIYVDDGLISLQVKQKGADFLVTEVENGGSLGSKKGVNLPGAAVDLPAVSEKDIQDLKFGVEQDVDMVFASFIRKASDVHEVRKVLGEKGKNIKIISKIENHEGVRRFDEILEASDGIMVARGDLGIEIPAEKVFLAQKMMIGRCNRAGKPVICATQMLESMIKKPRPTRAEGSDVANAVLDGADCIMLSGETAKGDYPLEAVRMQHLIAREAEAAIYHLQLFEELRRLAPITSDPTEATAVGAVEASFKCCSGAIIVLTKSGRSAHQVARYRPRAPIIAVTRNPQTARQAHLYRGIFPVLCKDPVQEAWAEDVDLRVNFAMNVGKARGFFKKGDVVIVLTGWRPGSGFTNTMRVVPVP
Method in brief: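 hPK-M2, >95% pure; 0.1 mM ADP / 0.5 mM PEP final; imidazole pH7.2 buffer w/ 7 mM MgCl2, 50 mM KCl; 1 h RT; Kinase-Glo lum. Intermediate enzyme activity for dual inhibitor/activator qHTS.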
For `O=S(=O)(c1ccc2c(c1)OCCO2)N1CCC(n2nnc3cc(F)ccc32)CC1`, the Potency was active: 8.91 µM.
In the case of `Cc1nnc2sc(SCc3ccc(Cl)cc3)nn2c1=O`, the Potency is reported as inconclusive [rising, partial curve].
For `CCn1c(NC(=O)c2cccc(Cn3cc(Cl)cn3)c2)nc2ccccc21`, the “activation” value was inactive: 5.4%.
For `CCOC(=O)c1ccc(NC(=O)c2cccc(S(=O)(=O)N3c4ccccc4CC3C)c2)s1` (stereo not drawn), the “activation” value was inactive: -4.94%.
With `COc1ccccc1CN=Cc1[nH]c2ccc(Br)c(Cl)c2c1O` the Potency was inconclusive [rising, partial curve].
`COc1ccc(NC(=S)NCCc2c[nH]c3ccccc23)cc1` was tested, and the “activation” value was inactive: 7.33%.
In the case of `CCN(CC)S(=O)(=O)c1ccc(NC(=O)c2cccs2)cc1`, the Potency is reported as inconclusive [rising, partial curve].
With `CC(C)C(=O)N(c1ccc2oc(=O)sc2c1)S(=O)(=O)c1cccs1` the Potency was inconclusive [rising, partial curve].
In the case of `Fc1ccc(C2=NN(c3ccccc3)C(c3ccco3)C2)cc1` (stereo not drawn), the “activation” value is reported as inactive: -1.96%.
`CC(C)CCC1=NN(C(=O)c2ccco2)C(O)(C(F)(F)F)C1` (stereo not drawn) was tested, and the “activation” value was inactive: 6.84%.
With `CC(=O)N1N=C(c2ccc(C)cc2)CC1c1ccco1` (stereo not drawn) the Potency was inconclusive [rising, single point].
`COc1nc(Nc2ccccc2F)nc(OC)n1` was tested, and the “activation” value was inactive: -6.87%.
With `O=C(O)c1ccc(C2CCCCC2)cn1` the “activation” value was inactive: -14.5%.
With `Cc1cc(C(=O)COC(=O)c2ccc[nH]c2=O)c(C)n1CCc1ccc(F)cc1` the “activation” value was inactive: -1.94%.
For `Fc1ccc(N/N=C/c2cccnc2)c(F)c1`, the “activation” value was inactive: 0.285%.
With `Cc1cc(C)c(C#N)c(SCC(=O)Nc2nonc2N)n1` the Potency was active: 14.1 µM.
With `CCOc1ccc(C(=O)CN2CCN(S(=O)(=O)c3ccc(F)cc3)CC2)cc1` the Potency was inconclusive [rising, single point].
`CSc1nc2ccc(NS(=O)(=O)c3ccccc3F)cc2s1` was tested, and the Potency was inconclusive [rising, partial curve].
In the case of `O=c1cc(CO)oc(C(Nc2cccc([N+](=O)[O-])c2)c2ccccn2)c1O` (stereo not drawn), the Potency is reported as inconclusive [rising, partial curve].
`CCOC(=O)c1ccoc1CSCC(=O)N1CCN(S(=O)(=O)c2ccc(C)cc2)CC1` was tested, and the Potency was active: 25.1 µM.
`Cc1ccc(NC(=O)c2cccc(NC(=O)/C=C/c3ccco3)c2)cc1C` was tested, and the Potency was inconclusive [rising, partial curve, poor fit].
`CCOC(=O)Cn1c(=O)oc2cc(S(=O)(=O)Nc3cccc(C)c3)ccc21` was tested, and the Potency was inconclusive [rising, partial curve].
For `Cc1ccnc(NS(=O)(=O)c2ccc3c(c2)CCO3)c1`, the Potency was inconclusive [rising, partial curve].
